Assay results published in the supplement of paper PMC11417369.
The other results are listed elsewhere or left out.

The sequences below were run on PfSIP2 AP2 domain 1 (GST-tagged) (assay: gcPBM binding intensity (ln(normalized median fluorescence intensity)); higher = stronger DNA binding).
Method in brief: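 Binding intensity is defined as the maximum Masliner-normalised natural-log median intensity across replicate spots for either probe orientation. It was measured on an Agilent 4 × 180k array of primer-extended double-stranded 36-bp intergenic genomic probes and negative controls, to which GST-tagged P. falciparum DNA-binding domains made in E. coli were applied for 1 h in 1× PBS with 1% milk, 0.2 mg/ml BSA, 0.5% salmon testes DNA and 0.03% Triton X-100. Detection was by Alexa488 anti-GST antibody and scanning at 488 nm.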

Sequence | gcPBM binding intensity (ln)
AAAATGTACGCATATACACACACATAAATAGATACG [CACACA_site9124] | 7.3
AAGAAATAATTATTATGTACTTAAAAAAATTAAAAT [XGTACX_site7423] | 7.16
AAGAAATAAATACATACACACATATATAAATAAATA [CACACA_site7559] | 6.89
ATATATATATAATTATATAAAATATATCATATGTTA [XGTACX_negctrl_site47] | 8.67
ACATCATAAAATTTATGTACACATTTTTAATTATAC [XGTACX_site7759] | 7.26
ATCATTTTTATGTACACACACATATACGTTGAATAT [CACACA_site1865] | 7.32
AAGGTATACACTGCTTTATCAAGTTTAACTCTTTTT [XGTACX_negctrl_site118] | 6.6
TATAAAATTTACGTGTGTACATATTTAATAATTTTT [XGTACX_site5001] | 7.18
AAGATATGAGGGAATACACACATATTTATATTTATA [CACACA_site6846] | 6.7
TAAATATAGAAACACACACACATTAATACATATATT [CACACA_site3489] | 6.92
AAATTTGAAATGCATGAACACACACCGCTATAAATG [CACACA_site8230] | 7.08
TAATTTTTTATATATTGTACAAATAATATATGATGT [XGTACX_site268] | 7.4
TTCGTAATTTATATCACACACATATATATATAATAA [CACACA_site3115] | 7.5
CAACTTTATACATATAGTACAAGTTATATTTTATTA [XGTACX_site6651] | 6.9
AACGATTTACATCACTGTACTAATGATATACCTCAT [XGTACX_site7463] | 6.89
TATATATATATATATTGTACTATATAGTATCTTTTT [XGTACX_site1646] | 9.07
TATATATTTTCTTTTGCACACTGTTTTCCTTTTTTT [CACACA_site2739] | 7.02
CTTTCCATATATGATAGTACACGATAAAAAAAAAAA [XGTACX_site5772] | 7.23
AAAGAAATAAGGTGCACACATATACATATATATATA [CACACA_site429] | 11.9
TTTAAAAAAAATTCATATTATATATATATATATTAT [CACACA_negctrl_site1733] | 7.3
TTCTTTTTTATTTTTCAACACACATAATAAATTTCT [CACACA_site8253] | 7.51
TTATAATTTTTCTATTGTACATTTAATAATATATAT [XGTACX_site7326] | 7.23

Sequence | gcPBM binding intensity (ln)
TTATACATATTTATATGTACGTAATATAATATTAAT [XGTACX_site6520] | 6.96
ATGAAGAAATAAATGTGTACATATCTTAGTATCATA [XGTACX_site8658] | 7.21
TATTTAATTTATACACGTACATATATAAATAATACA [XGTACX_site1148] | 7.28
TATAATGATGATGATAGTACGTATTAGTATAAAAAA [XGTACX_site9] | 7.24
TCATGGGTGTATTTCACACACGGATAATCATTTATA [CACACA_site4663] | 6.79
AGAAATAAAAAAAAAAATATATATATTATATATATA [CACACA_negctrl_site1799] | 7.83
ATATTTTTTTTTGTTACACACGTTTTTTAAAAAATG [CACACA_site1603] | 7.4
TCATAAAAATAAAAATGTACACATTAGAAATATTGT [XGTACX_site3671] | 6.87
TTACTATAAAATGTCACACATTCTGTTTCCTTACTT [CACACA_site5714] | 6.7
TCAACAAAATTGAAGGAACACACATACATATATATA [CACACA_site7940] | 7.51
TATAAATATCTGTATGCACACATTTTTTTTGGAAAA [CACACA_site4734] | 8.04
ATTTTTTCTCATAAAAACGTGAACGTTTATTTTACA [CACACA_negctrl_site1041] | 6.95
ATTATAAAAGAATTTTTTTTTATTTCATTAAAATAT [CACACA_negctrl_site1137] | 6.57
AGCACATAAATAATTAAACACACATTGTTCTAGACA [CACACA_site8746] | 6.89
AAAAAAATACATACGTGTACCCACATATATGTATCT [XGTACX_site5319] | 6.67
GTTTCTACTTATATAACAGGACACGTGTGAATAATT [TGCATGCA_negctrl_site430] | 7.26
TTGAAGGTGGCAATGTGTACATAGAATAACCAGTGC [XGTACX_site4738] | 7.19
ACAATTGCATCTATCACACATACATACATACATACA [CACACA_site5063] | 8.23
AAAAAAAAAAAACATTGTACGCACATTTTATATGTC [XGTACX_site6974] | 7
GCAAGTCCATGAACGGTGCAGGAATTAACAAAAATA | 9.11
AATAAAAATAAAAGCACACATAAATATATATATATT [CACACA_site1441] | 6.95
TCATGGCCATTTTCAGTGCATATGTGTATTTAATAT [GTGCAC_site9529] | 7.92

Sequence | gcPBM binding intensity (ln)
TGCATAATTAAAAATGGTACACTGTATTTATAATAT [XGTACX_site1575] | 7.13
TATAAATTAAGATAACGTACATATAATAATATAAAC [XGTACX_site487] | 7.07
TGTACAGTATATACAACACACATTTGTATAAATATA [CACACA_site1002] | 6.93
TGTACACCCAGAAATGCACACACATATATATATATA [CACACA_site8716] | 9.53
TATATATATTTTATGTGTACTCAATGTTATAACGCA [XGTACX_site8360] | 7.37
AATAGAGTTGAATGCACACATACAAATTTTTAGTTT [CACACA_site3564] | 6.92
TTATTATATAAAGTTTCACACATTATTTGTTCAAAC [CACACA_site5218] | 6.72
ATATGAAGTATCGAATTAAGGGCAACAAATAAATTA [CACACA_negctrl_site1116] | 6.96
AAAAAAATAATATAAATAATGAAAAGATATAAATAA [GTGCAC_negctrl_site432] | 6.85
AATATAAGCAAATACACACACACATATAAATATGTA [CACACA_site7741] | 7.06
TACATATATAAATATGTACACACATATGTATGATCT [CACACA_site9284] | 7.08
TTATATATGACTAACGGTTTTTTTTTTTTTTTTTTT [CACACA_negctrl_site576] | 7.95
AGTAGTCTGGAGAAGAGTACACAGTATCTGGTAACA [XGTACX_site2032] | 6.52
TAATATCAATTTTTATGTACTTATATATATATATAT [XGTACX_site5879] | 8.95
ATTGAGAGAAAAAAATGTACTTGATCAAAATGGATA [XGTACX_site1649] | 6.97
GTGTATATATGTTATACACACAAAAATATTTTGTAT [CACACA_site265] | 6.97
AAAAATCATATAGGTTGTACGGGTAGTTTATTTTAT [XGTACX_site6936] | 7.02
ACAAAAAAAAAAAAAAAAAAAAAAAAAAAATAATAA [CACACA_negctrl_site1640] | 6.95
AGATCAATAATGACAAGTACACAAAATAACATTTAA [XGTACX_site6968] | 7
AAAATATATTAAGGCACACACATACATATTTATATA [CACACA_site7707] | 7
ATTTTGTAAAAGGTCATACACACATATTCAAAAGAA [CACACA_site2946] | 7
CGCACCCACAGACACACACACACATATATATATATA [CACACA_site2202] | 9.47

Sequence | gcPBM binding intensity (ln)
AATATATATTAAATATGTACTTATTTTTTGGTTGCT [XGTACX_site3613] | 6.99
TACATACAGAAACACACACACACATATATATATATA [CACACA_site2919] | 9.28
AAAGAATAATTAAATACACACATATTACAGTAAAAA [CACACA_site2450] | 6.86
ATAAGAAAAGGACACACACACAAAAAAAAAAAAAAA [CACACA_site7351] | 6.96
TGTTCTTATTTTATAAGCATATAATTAATCATAATG [CACACA_negctrl_site1493] | 6.88
TTTATTTATTATTGTTGTACACTTTTTATAAAAAAA [XGTACX_site5114] | 7.29
ATGTATATAATATTATGTACATATATGAAATATTTT [XGTACX_site8168] | 7.02
TAGTTTTTTATAAAATTATTTATATAAAGGTAAAAA [CACACA_negctrl_site490] | 7.1
AATATATTATAATATACACACATATATGCTCTTTAA [CACACA_site4131] | 7.17
ATATATTATATATATTTTAAGTAATTTGCAAAAAAT [GTGCAC_negctrl_site361] | 7.01
ATTTAAAAGAAATAATGTACGAATCATATTTGATAT [XGTACX_site1785] | 7.01
ATAGTATCTGGTAGCTGTACGAGTCGTAGAGTGCAG [XGTACX_site2020] | 8.66
ATTTATTAACCATATACACACATATATTTGTATTTA [CACACA_site6744] | 7.02
TTCCCTAATATTTGTTGTACTTGTTATATTTTTTTT [XGTACX_site5994] | 7.16
TATATTTGTAAGAAGAGTACTAAAAAAAGAATAAAG [XGTACX_site8704] | 7.49
ATATATATATATATATGTACGTACTCAGTTATGCCT [XGTACX_site453] | 9.2
ATACATATATATATATGTACATATGCACATATATAC [XGTACX_site7209] | 7.25
ATAATATATATATATACGCACACTTATGTACGGATT [CACACA_site2120] | 7.29
TTCTATATAATTCAAACATGCACAGGAAATATTATA [TGCATGCA_site290] | 9.85
AACAATGTTTTCTTGTGTACACATCATTAAAGAAAA [XGTACX_site4726] | 7.37
AAGAAAAAAGGGGACAAGGCATATCTATATATACAT [TGCATGCA_negctrl_site172] | 6.68
TATGTAACACATACTTGTACATATATAATTTTTTTA [XGTACX_site6251] | 6.78
